Results as given in PubChem BioAssay AID588855 (National Center for Advancing Translational Sciences (NCATS), 2011).
In all, about 410,000 compounds went through this assay and about 5,000 (1.2%) were called active. Inconclusive results, whose numbers are uncertain, are shown with a selection of clear calls. The call rests on the fitted dose curve; in most records, active means well fitted inhibition curve with a large enough effect; inconclusive means small, poorly fitted or top-dose-only effect; inactive means no such curve, though single readings can be large or run the other way. A potency beside an inconclusive call is a rough fit, not a confirmed value.
Potency means the concentration at half of the fitted maximal effect; tags describe the fitted curve by direction and shape.

Test: qHTS for Inhibitors of TGF-b; further: nearly all actives have a fitted effect of over 65% in size
Conditions: HepG2 CAGA-GFP TGF-b/SMAD3 reporter, GFP fluorescence, 18 h, TGF-beta stimulated, 500 pg/mL final; series mostly up to 46.1 µM
In short: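 Inhibition of TGF-beta-driven CAGA-GFP reporter expression in HEPG2 cells is measured by cellular GFP fluorescence after 18 h stimulation with 500 pg/mL recombinant TGF-beta in 1% FBS medium at 37 degrees C.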
In the case of `CC[C@]12c3[nH]c4ccc(OC)cc4c3CCN1C(=O)C(CC(=O)NC/C=C(\C)CCC=C(C)C)C[C@@H]2C(=O)N1CCN(C(=O)C2CC2)CC1` (some centres undefined), the Potency is reported as inconclusive: 11.2 µM [inhibitor, partial curve, poor fit]. For `O=C(CC1N=C2c3ccccc3N=C(SCc3ccc(F)cc3)N2C1=O)NCc1ccc2c(c1)OCO2` (centres undefined), the Potency was inconclusive: 7.08 µM [inhibitor, full curve, poor fit]. With `Cc1nc2c(-c3ccccc3)c(C)nn2c(C)c1CCC(=O)O` the Potency was inconclusive: 3.16 µM [inhibitor, partial curve]. With `CC(=O)c1ccc(N2CCN(S(=O)(=O)c3ccc4ccccc4c3)CC2)cc1` the Potency was inconclusive: 12.6 µM [inhibitor, single point]. With `O=C(N/N=C/c1cc([N+](=O)[O-])ccc1O)NC12CC3CC(CC(C3)C1)C2` the Potency was inconclusive: 4.47 µM [inhibitor, full curve, poor fit]. In the case of `O=C(CSC(=S)N1CCCCC1)Nc1nc(-c2ccccc2)c(-c2ccccc2)o1`, the Potency is reported as “inactive”. With `COCC(=O)N1CCCC(C(=O)c2ccc(Oc3ccccc3)cc2)C1` (centres undefined) the Potency was inconclusive: 2.24 µM [inhibitor, partial curve, poor fit]. For `COc1cccc(NC(=O)CSc2nn3c(=O)c(C)nnc3s2)c1`, the Potency was “inactive”. With `O=C(NCc1ccc2c(c1)OCO2)c1ccc2c(c1)S(=O)(=O)c1ccccc1C2=O` the Potency was inconclusive: 12.6 µM [inhibitor, single point]. For `Cc1cc(C)cc(NC(=O)C2(c3ccccc3)CC2(Cl)Cl)c1` (centres undefined), the Potency was inconclusive: 35.5 µM [inhibitor, single point]. In the case of `Cc1ccc2cc(C#N)c(N3CCN(C(=O)c4ccccc4)CC3)nc2c1`, the Potency is reported as inconclusive: 35.5 µM [inhibitor, single point]. With `COc1ccc(C2NN=C(c3c[nH]c4ccccc34)C2O)cc1` (centres undefined) the Potency was inconclusive: 35.5 µM [inhibitor, single point]. For `CCCSc1nnc(-c2c[nH]c3ccccc23)n1CC`, the Potency was “inactive”. For `CC(Oc1cc2oc(=O)c3c(c2cc1Cl)CCC3)C(=O)NCCN1CCOCC1` (centres undefined), the Potency was “inactive”. With `COc1ccccc1/C=C/C(=O)Oc1cccc2cccnc12` the Potency was active: 7.94 µM. With `Cc1ccc(N2C(N)=C(C#N)C(c3cccs3)C3=C2CC(C)(C)CC3=O)cc1` (centres undefined) the Potency was inconclusive: 3.16 µM [inhibitor, partial curve]. With `COc1ccccc1Nc1nc(-c2ccccc2F)nc2ccccc12` the Potency was inconclusive: 5.62 µM [inhibitor, single point]. For `Cc1cccc(-c2nn3c(=O)cc(CN4CCN(C(=O)/C=C/c5ccccc5)CC4)nc3s2)c1`, the Potency was inconclusive: 0.891 µM [inhibitor, full curve, poor fit]. In the case of `Cc1cc(C)cc(Cn2c(C)c(C(=O)N(C)Cc3ccc(F)cc3)sc2=O)c1`, the Potency is reported as inconclusive: 17.8 µM [inhibitor, partial curve, poor fit]. For `Cc1ccc(-c2nc3c(C)cc(Br)cn3c2Cc2ccsc2)cc1`, the Potency was inconclusive: 22.4 µM [inhibitor, partial curve, poor fit]. In the case of `Cc1cccc(Cn2c(=O)n3nc(-c4ccccc4)nc3c3ccccc32)c1`, the Potency is reported as inconclusive: 12.6 µM [inhibitor, partial curve, poor fit]. For `CN(CC(=O)Nc1ccc(F)cc1)c1ccc(S(=O)(=O)N2CCCCC2)cc1[N+](=O)[O-]`, the Potency was inconclusive: 11.2 µM [inhibitor, partial curve]. With `C#CCNC(=O)C1=C[C@H](c2cn(C(C)=O)c3ccccc23)C[C@H](OCc2ccc(CO)cc2)O1` the Potency was inconclusive: 0.112 µM [inhibitor, full curve, poor fit]. With `C=Cc1ccc(Cn2c(C(=O)O)c(CNCc3ccc(F)cc3)c3ccc(C)cc32)cc1` the Potency was active: 12.6 µM. For `Cc1cc(C)c(NC(=O)CSc2ncc3c(n2)-c2cc(Cl)ccc2N(C)S3(=O)=O)c(C)c1`, the Potency was inconclusive: 6.31 µM [inhibitor, single point]. For `CCN1C(=O)C(CC(=O)Nc2ccc(OC)cc2)N(CCc2ccc(F)cc2)C1=S` (centres undefined), the Potency was inconclusive: 35.5 µM [inhibitor, single point]. For `CC(=O)Nc1ccc(NC(=O)c2csc([C@@H]3C[C@H](O)[C@@H](CO)O3)n2)cc1`, the Potency was “inactive”. With `COc1cccc(CN2CCN(C(=O)c3cccc4ccccc34)CC2)c1OC` the Potency was inconclusive: 11.2 µM [inhibitor, partial curve]. With `Clc1cncc(Cl)c1NNc1c2ccccc2nc2ccccc12` the Potency was inconclusive: 6.31 µM [inhibitor, single point]. For `CCOc1ccc(C(=O)Nc2cccc(-c3nc4ccccc4[nH]3)c2C)cc1[N+](=O)[O-]`, the Potency was inconclusive: 10 µM [inhibitor, partial curve]. With `COc1ccc(C(=O)c2ccc(Cl)cc2)cc1` the Potency was inconclusive: 0.1 µM [inhibitor, full curve, poor fit]. In the case of `COc1ccccc1CNc1nc(Nc2cccc(-c3cnco3)c2)c2sccc2n1`, the Potency is reported as inconclusive: 22.4 µM [inhibitor, single point]. For `CC(C)(C)c1ccc(/C=C/C(=O)Nc2ccc(S(N)(=O)=O)cc2)cc1`, the Potency was inconclusive: 35.5 µM [inhibitor, single point]. For `CCOc1cccc(NC(=O)C2CC(=O)N(CC)C(=Nc3ccc(F)cc3)S2)c1` (centres undefined), the Potency was inconclusive: 22.4 µM [inhibitor, single point]. With `OCC1=C[C@@H](O)C2C=CO[C@@H](O[C@@H]3O[C@H](CO)[C@@H](O)[C@H](O)[C@H]3O)C12` (some centres undefined) the Potency was “inactive”. With `O=C(c1cccc(S(=O)(=O)NCc2ccccc2)c1)N1CCN(c2cccc(C(F)(F)F)c2)CC1` the Potency was inconclusive: 35.5 µM [inhibitor, single point]. With `O=C(CN1CCOCC1)NC1CC2CCC1C2` (centres undefined) the Potency was inconclusive: 35.5 µM [inhibitor, single point]. With `COC(=O)c1c(-c2ccc(Cl)cc2)noc1N1CCN(c2cc(C)ccc2C)CC1` the Potency was “inactive”. In the case of `O=C(NCC(c1cccnc1)N1CCc2ccccc21)c1cccc(Br)c1` (centres undefined), the Potency is reported as inconclusive: 10 µM [inhibitor, partial curve, poor fit].
